Assay results as given in patent US20110262477A1 (priority 2008, published 2011).

Tested on: S. aureus Newman
Test: Active immunization with Eap or Emp and staphylococcal challenge (FIG. 13A-B)
Details: active immunization day 0 and 11, challenge 1×10^7 CFU S. aureus Newman, five days following infection; FIG. 13B

B1: Emp: recombinant His-tagged staphylococcal envelope associated protein Emp (SEQ ID NO:2) purified from E. coli, vaccine antigen (protein, listed as Staphylococcus aureus)
chain: MKKKLLVLTMSTLFATQIMNSNHAKASVTESVDKKFVVPESGINKIIPAYDEFKNSPKVNVSNLTDNKNFVASEDKLNKIADSSAASKIVDKNFVVPESKLGNIVPEYKEINNRVNVATNNPASQQVDKHFVAKGPEVNRFITQNKVNHHFITTQTHYKKVITSYKSTHVHKHVNHAKDSINKHFIVKPSESPRYTHPSQSLIIKHHFAVPGYHAHKFVTPGHASIKINHFCVVPQINSFKVIPPYGHNSHRMHVPSFQNNTTATHQNAKVNKAYDYKYFYSYKVVKGVKKYFSFSQSNGYKIGKPSLNIKNVNYQYAVPSYSPTHYVPEFKGSLPAPRV
modifications: His-tag
  reduction in staphylococcal load within kidney tissues: 0.959 log10 CFU g^−1

B2: Eap: recombinant His-tagged staphylococcal envelope associated protein Eap (SEQ ID NO:4) purified from E. coli, vaccine antigen (protein, listed as Staphylococcus aureus)
chain: MKFKSLITTTLALGVLASTGANFNNNEASAAAKPLDKSSSSLHHGYSKVHVPYAITVNGTSQNILSSLTFNKNQNISYKDLEDRVKSVLKSDRGISDIDLRLSKQAKYTVYFKNGTKKVIDLKAGIYTADLINTSEIKAININVDTKKQVEDKKKDKANYQVPYTITVNGTSQNILSNLTFNKNQNISYKDLEDKVKSVLESNRGITDVDLRLSKQAKYTVNFKNGTKKVIDLKSGIYTANLINSSDIKSININVDTKKHIENKAKRNYQVPYSINLNGTSTNILSNLSFSNKPWTNYKNLTSQIKSVLKHDRGISEQDLKYAKKAYYTVYFKNGGKRILQLNSKNYTANLVHAKDVKRIEITVKTGTKAKADRYVPYTIAVNGTSTPILSDLKFTGDPRVGYKDISKKVKSVLKHDRGIGERELKYAKKATYTVHFKNGTKKVININSNISQLNLLYVQDIKKIDIDVKTGTKAKADSYVPYTIAVNGTSTPILSKLKISNKQLISYKYLNDKVKSVLKSERGISDLDLKFAKQAKYTVYFKNGKKQVVNLKSDIFTPNLFSAKDIKKIDIDVKQYTKSKKNK
modifications: His-tag
  reduction in staphylococcal load within kidney tissues: 1.939 log10 CFU g^−1
